Assay results: PMC12820563, “FoxP3 forms a head-to-head dimer in vivo and stabilizes its multimerization on adjacent microsatellites”
The other results are listed elsewhere or left out.

Each sequence was assayed against T1, MBP-FoxP1dN (Mus musculus, UniProt P58462 326-579) (assay: PD-seq (MBP pull-down with sequencing); 20 mM Tris-HCl pH 7.5, 100 mM NaCl, 1.5 mM MgCl2, 0.4 uM protein, 0.1 uM dsDNA library, 30 min, room temperature, amylose pull-down; high values mean tight binding). Conditions: protein: recombinant; tags: His6-MBP; chain copies: 2; dsDNA, one strand shown.
T1 sequence: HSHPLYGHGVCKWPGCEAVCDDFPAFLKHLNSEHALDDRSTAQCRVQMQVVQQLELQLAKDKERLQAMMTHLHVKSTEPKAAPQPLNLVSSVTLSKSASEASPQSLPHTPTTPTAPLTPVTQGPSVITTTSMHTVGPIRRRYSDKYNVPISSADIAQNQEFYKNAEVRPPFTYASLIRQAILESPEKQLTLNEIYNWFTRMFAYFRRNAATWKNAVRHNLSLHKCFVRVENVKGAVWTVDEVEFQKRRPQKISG
How it was run: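 Amylose resin was used to capture complexes formed during 30 min at room temperature in Tris pH 7.5 buffer with NaCl and MgCl2 between 0.4 µM His6-MBP-tagged mouse FoxP3 or FoxP1 fragment lacking the N-terminus, expressed in E. coli, and 0.1 µM Klenow-filled double-stranded degenerate DNA library. After three washes, the DNA was released with proteinase K, barcoded by PCR and sequenced on Illumina. Binding is pooled-replicate reads-per-million enrichment, pull-down over input.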

| Sequence | binding signal |
| --- | --- |
| GATGATTGTTCTCCCAGCTGATGAATTTTGGCCCTCGAGTAAACAAATTTTCCTAATCTTTCTGTTCAAGCGCCATCTAC | 0.825 RPM ratio (pull-down/input) |
| GATGATTGTTCTCCCAGCTGATGAATTTCCGCAATCGAGTAAACAAATTTTCCTAATCTTTCTGTTCAAGCGCCATCTAC | 1.12 RPM ratio (pull-down/input) |
| GATGATTGTTCTCCCAGCTGATGAATTGCGCAGGTCGAGTAAACAAATTTTCCTAATCTTTCTGTTCAAGCGCCATCTAC | 0.897 RPM ratio (pull-down/input) |
| GATGATTGTTCTCCCAGCTGATGAATTCGTCGGTTCGAGTAAACAAATTTTCCTAATCTTTCTGTTCAAGCGCCATCTAC | 0.828 RPM ratio (pull-down/input) |
| GATGATTGTTCTCCCAGCTGATGAATTTGTGAGCTCGAGTAAACAAATTTTCCTAATCTTTCTGTTCAAGCGCCATCTAC | 0.999 RPM ratio (pull-down/input) |
| GATGATTGTTCTCCCAGCTGATGAATTGCAGCCTTCGAGTAAACAAATTTTCCTAATCTTTCTGTTCAAGCGCCATCTAC | 1.18 RPM ratio (pull-down/input) |
| GATGATTGTTCTCCCAGCTGATGAATTTGCTTTCTCGAGTAAACAAATTTTCCTAATCTTTCTGTTCAAGCGCCATCTAC | 1.22 RPM ratio (pull-down/input) |
| GATGATTGTTCTCCCAGCTGATGAATTTTAATCTTCGAGTAAACAAATTTTCCTAATCTTTCTGTTCAAGCGCCATCTAC | 0.977 RPM ratio (pull-down/input) |
| GATGATTGTTCTCCCAGCTGATGAATTGAACATATCGAGTAAACAAATTTTCCTAATCTTTCTGTTCAAGCGCCATCTAC | 0.958 RPM ratio (pull-down/input) |
| GATGATTGTTCTCCCAGCTGATGAATTTGGCCCATCGAGTAAACAAATTTTCCTAATCTTTCTGTTCAAGCGCCATCTAC | 0.925 RPM ratio (pull-down/input) |
| GATGATTGTTCTCCCAGCTGATGAATTGCTGCTTTCGAGTAAACAAATTTTCCTAATCTTTCTGTTCAAGCGCCATCTAC | 1.39 RPM ratio (pull-down/input) |
| GATGATTGTTCTCCCAGCTGATGAATTGACTGCGTCGAGTAAACAAATTTTCCTAATCTTTCTGTTCAAGCGCCATCTAC | 1.08 RPM ratio (pull-down/input) |
| GATGATTGTTCTCCCAGCTGATGAATTGGGGAAATCGAGTAAACAAATTTTCCTAATCTTTCTGTTCAAGCGCCATCTAC | 0.984 RPM ratio (pull-down/input) |
| GATGATTGTTCTCCCAGCTGATGAATTCGCGCCTTCGAGTAAACAAATTTTCCTAATCTTTCTGTTCAAGCGCCATCTAC | 0.921 RPM ratio (pull-down/input) |
| GATGATTGTTCTCCCAGCTGATGAATTATAGGCTTCGAGTAAACAAATTTTCCTAATCTTTCTGTTCAAGCGCCATCTAC | 0.959 RPM ratio (pull-down/input) |
| GATGATTGTTCTCCCAGCTGATGAATTCCGTACTTCGAGTAAACAAATTTTCCTAATCTTTCTGTTCAAGCGCCATCTAC | 0.878 RPM ratio (pull-down/input) |

| Sequence | binding signal |
| --- | --- |
| GATGATTGTTCTCCCAGCTGATGAATTGCCGTGTTCGAGTAAACAAATTTTCCTAATCTTTCTGTTCAAGCGCCATCTAC | 0.927 RPM ratio (pull-down/input) |
| GATGATTGTTCTCCCAGCTGATGAATTCGTTCTATCGAGTAAACAAATTTTCCTAATCTTTCTGTTCAAGCGCCATCTAC | 0.93 RPM ratio (pull-down/input) |
| GATGATTGTTCTCCCAGCTGATGAATTGCCGCACTCGAGTAAACAAATTTTCCTAATCTTTCTGTTCAAGCGCCATCTAC | 0.941 RPM ratio (pull-down/input) |
| GATGATTGTTCTCCCAGCTGATGAATTATACTTATCGAGTAAACAAATTTTCCTAATCTTTCTGTTCAAGCGCCATCTAC | 1.1 RPM ratio (pull-down/input) |
| GATGATTGTTCTCCCAGCTGATGAATTATACTAGTCGAGTAAACAAATTTTCCTAATCTTTCTGTTCAAGCGCCATCTAC | 0.983 RPM ratio (pull-down/input) |
| GATGATTGTTCTCCCAGCTGATGAATTGTAGTGTTCGAGTAAACAAATTTTCCTAATCTTTCTGTTCAAGCGCCATCTAC | 1.24 RPM ratio (pull-down/input) |
| GATGATTGTTCTCCCAGCTGATGAATTGTTTAGGTCGAGTAAACAAATTTTCCTAATCTTTCTGTTCAAGCGCCATCTAC | 1.93 RPM ratio (pull-down/input) |
| GATGATTGTTCTCCCAGCTGATGAATTGAGTTCATCGAGTAAACAAATTTTCCTAATCTTTCTGTTCAAGCGCCATCTAC | 0.874 RPM ratio (pull-down/input) |
| GATGATTGTTCTCCCAGCTGATGAATTATTCAGTTCGAGTAAACAAATTTTCCTAATCTTTCTGTTCAAGCGCCATCTAC | 1.04 RPM ratio (pull-down/input) |
| GATGATTGTTCTCCCAGCTGATGAATTCGTCACTTCGAGTAAACAAATTTTCCTAATCTTTCTGTTCAAGCGCCATCTAC | 0.853 RPM ratio (pull-down/input) |
| GATGATTGTTCTCCCAGCTGATGAATTCGGCACGTCGAGTAAACAAATTTTCCTAATCTTTCTGTTCAAGCGCCATCTAC | 0.848 RPM ratio (pull-down/input) |
| GATGATTGTTCTCCCAGCTGATGAATTATATAAATCGAGTAAACAAATTTTCCTAATCTTTCTGTTCAAGCGCCATCTAC | 1.16 RPM ratio (pull-down/input) |
| GATGATTGTTCTCCCAGCTGATGAATTGAAACGTTCGAGTAAACAAATTTTCCTAATCTTTCTGTTCAAGCGCCATCTAC | 0.848 RPM ratio (pull-down/input) |
| GATGATTGTTCTCCCAGCTGATGAATTATTACGGTCGAGTAAACAAATTTTCCTAATCTTTCTGTTCAAGCGCCATCTAC | 0.992 RPM ratio (pull-down/input) |
| GATGATTGTTCTCCCAGCTGATGAATTCTAACTGTCGAGTAAACAAATTTTCCTAATCTTTCTGTTCAAGCGCCATCTAC | 0.866 RPM ratio (pull-down/input) |
| GATGATTGTTCTCCCAGCTGATGAATTAAAAGAGTCGAGTAAACAAATTTTCCTAATCTTTCTGTTCAAGCGCCATCTAC | 0.847 RPM ratio (pull-down/input) |
